# Source: PubChem BioAssay AID1240 (Sanford-Burnham Center for Chemical Genomics, 2008)
# About 800 (1.6%) of roughly 50,000 compounds showed an effect of 50% or more. The list shows a part of the results.
# Target: Bcl-2-like protein 10 (Homo sapiens) (UniProt Q9HD36)
# Test: TR3 peptide-Bcl-B binding displacers, biochemical primary FP assay, phenotype converters (AID 1240);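 note: 0% = Bcl-B with tracer peptide and DMSO and 100% = tracer peptide lacking Bcl-B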
# Conditions: GST-Bcl-B / FITC-TR3 peptide fluorescence polarization; stronger effect = higher value; compound at 3.75 mg/L
# UniProt Q9HD36, sequence (Q9HD36 whole entry, looked up): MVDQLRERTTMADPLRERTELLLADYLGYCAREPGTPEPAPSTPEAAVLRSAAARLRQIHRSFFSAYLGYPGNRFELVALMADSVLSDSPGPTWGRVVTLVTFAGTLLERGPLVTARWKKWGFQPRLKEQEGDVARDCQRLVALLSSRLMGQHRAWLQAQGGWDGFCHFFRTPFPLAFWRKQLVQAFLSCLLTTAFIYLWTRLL
row,SMILES,displacement
1,COC(=O)COc1ccc(/C=C2\C(=O)C(C(=O)OC)=C(C)N2c2cc(C)cc(C)c2)cc1,-1.5%
2,CCN(CC)c1ccc(/C=C2\C(=O)NC(=S)N(c3ccc(Cl)cc3)C2=O)o1,3.2%
3,Cc1[nH]n(-c2ccccc2)c(=S)c1C=Nc1ccc(Br)cc1,-11.1%
4,O=C(NC(=S)NC1CCSC1=O)c1ccc(Cl)cc1Cl (centres undefined),6.3%
5,CC(C)CNC(=O)c1cccc(NC(=O)c2ccccc2-c2ccccc2C(=O)O)c1,-3%
6,Cc1cc(C)nc(NS(=O)(=O)c2ccc(N/C=C/C(=O)c3ccc(Br)cc3)cc2)n1,-13.5%
7,Cc1ccc(-n2nc3cc(C)c(NC(=O)c4ccc([N+](=O)[O-])cc4Cl)cc3n2)cc1,2.1%
8,N/C(=N\OC(=O)c1ccco1)c1ccc([N+](=O)[O-])cc1,5%
9,O=C1CC(c2ccccc2Br)c2c(ccc3ccccc23)N1 (centres undefined),10.5%
10,CCOc1ccccc1NC(=O)c1c(NC(=O)C(C)(C)C)sc2c1CCCCC2,3.9%
11,CCSc1nc2ccc(NC(=O)c3ccccc3C(=O)N3CCOCC3)cc2s1,-1.3%
12,CCOC(=O)c1c(-c2ccccc2)oc2ccc(OCC(=O)OCc3ccccc3)cc12,5.9%
13,CC(C)C12CN3CC(C(C)C)(CN(C1)C3c1c(O)ccc3ccccc13)C2=O (centres undefined),0.6%
14,COc1ccc(-n2[nH]c(C)cc2=O)cc1,9.9%
15,CCNC(=O)N1c2ccc(C)cc2C(C)=CC1(C)C,-1.6%
16,COc1cccc(C(=O)Nc2sc(C(=O)OC(C)C)c(C)c2C(=O)OC(C)C)c1,-10.2%
17,Cc1ccc(/C=c2/sc3n(c2=O)C(N)=C(C#N)C(c2ccc(C)o2)C=3C#N)o1 (centres undefined),-12.7%
18,O=C1c2ccccc2C(=O)c2c1c(-c1ccccc1)nn2-c1ccccc1,-6.1%
19,CN(C)c1ccc(NC2=NC3(CCCC3)N=C(N)N2)cc1,-7.4%
20,O=C(Nc1ccc(N2C(=O)C3C4c5ccccc5C(c5ccccc54)C3C2=O)cc1Cl)c1ccc(Cl)cc1Cl (centres undefined),10%
21,COC(=O)c1ccccc1NC(=O)COc1ccc(-c2ccc(C)cc2)cc1,1.2%
22,COc1ccc(OC)c(NC(=S)NC(NC(=O)Cc2ccccc2)C(Cl)(Cl)Cl)c1 (centres undefined),-4.8%
23,O=C(NCCCO)C(=O)Nc1ccccc1,13.1%
24,CC(=O)NS(=O)(=O)c1ccc(NC(=O)c2cc([N+](=O)[O-])ccc2Cl)cc1,6.5%
25,CCN1C(=O)C(=Cc2cccn2-c2ccc([N+](=O)[O-])cc2)C(=O)N(CC)C1=S,46%
26,O=C1c2ccccc2NC(c2ccccc2O)N1c1ccc(Cl)cc1 (centres undefined),14.9%

row,SMILES,displacement
1,COC(=O)c1cnn2c(C(F)(F)F)cc(-c3ccc4c(c3)OCO4)nc12,-3.9%
2,COc1cc(NC(=O)c2cccc(Br)c2)ccc1NC(=O)c1ccco1,9.5%
3,Cc1cccc(C(=O)NNC(=O)c2ccccc2C)c1,-7.7%
4,Cc1cnc(NC(=O)c2ccc(Cl)cc2Cl)s1,3%
5,CC(=O)c1ccc(NC(=S)NC(NC(=O)Cc2ccccc2)C(Cl)(Cl)Cl)cc1 (centres undefined),-18.7%
6,O=C(Nc1ccc(Br)cn1)c1ccccc1SCc1ccccc1,12.9%
7,Cc1ccc(S(=O)(=O)N(Cc2ccc(C(=O)NCCSc3ccccn3)cc2)c2cccc(Cl)c2)cc1,-2.5%
8,O=C1N=C2N(CCN3CCOCC3)c3ccccc3N2/C1=C/c1ccccc1[N+](=O)[O-],-1.3%
9,O=c1cc(-c2ccccc2)nc(NO)[nH]1,11.2%
10,COC(=O)C1=C(C)N(C)C(C)=C(C(=O)OC)C1c1cccc(Br)c1,-6.4%
11,CCOc1ccccc1NC(=O)CN(c1cccc(Br)c1)S(=O)(=O)c1ccccc1,-0.2%
12,COc1ccc(-c2n[nH]c(=S)n2/N=C/c2sccc2C)cc1,-9.8%
13,COc1ccc(N2C(=O)c3ccc(OC)c(OC)c3C2=O)cc1,3.9%
14,O=C(CN(c1cccc(Br)c1)S(=O)(=O)c1ccccc1)N1CCOCC1,6.1%
15,Cc1ccc(C(=O)Nn2c(O)c(C3=c4cc(Br)ccc4=NC3=O)sc2=S)cc1,-22%
16,CCN(CC)c1ccc(C(=O)NCc2ccccc2OC)cc1,-7.9%
17,Cc1ccc(OCC(=O)NNC(=O)c2ccc(Cl)c(Cl)c2)c(C)c1,-3.7%
18,CC(C)C12CN3CC(C(C)C)(CN(C1)C3c1ccc(N(C)C)cc1)C2=O (centres undefined),12.9%
19,O=C(Cc1ccc(Cl)cc1)Nc1ccc(-c2nc3ccccc3s2)cc1,12.9%
20,O=C(CC1(C(F)(F)F)NCCN1)c1ccccc1,4.8%
21,Brc1ccc(-c2cn3c(n2)SCC3)cc1,-8%
22,CCC1=NN(C(=O)c2cccnc2)C(O)(c2ccccc2)C1 (centres undefined),16.7%
23,COC(=O)CSc1nc(N)c(C#N)c(-c2ccc(O)cc2)c1C#N,1.7%
24,O=c1c2ccccc2nc2n1CCCN2,7.5%
25,O=C(NCCO)c1cccc2c1-c1ccc(I)cc1C2,0.4%
26,CC(C)CNC(=O)/C(=C/c1ccc(N(C)C)cc1)NC(=O)c1ccccc1,30.3%

row,SMILES,displacement
1,COc1ccc(Br)cc1/C=C\C(=O)Nc1ccc([N+](=O)[O-])cc1OC,4.8%
2,Cn1c(=O)c2c(nc(-n3ccnc3)n2C)n(C)c1=O,9.9%
3,COc1cc(C(=O)Oc2ccc(Cl)cc2C)cc(OC)c1OC,2.1%
4,Cc1ccc(N(C(=O)COc2ccc(F)cc2)C2C=CS(=O)(=O)C2)cc1 (centres undefined),4.5%
5,O=C(N/N=C\c1ccc(N2CCCC2)c([N+](=O)[O-])c1)c1ccccn1,-11.6%
6,CCCNC(=S)N1CC2(C)CN(C(=O)C(=O)OC)CC(C)(C1)C2=O,4.3%
7,Cc1ccc(N(CC(=O)NCc2cccnc2)S(=O)(=O)c2ccc(F)cc2)cc1,-13.1%
8,COc1cccc(NC(=O)/C(=C\c2cccc(Br)c2)NC(=O)c2ccccc2)c1,1.1%
9,CCOc1cc(/C=C2\C=C(c3ccc(OC)cc3)OC2=O)ccc1OC(C)=O,92.4%
10,O=C1CC(Nc2ccccc2)C(=O)N1Cc1ccccc1 (centres undefined),-8.3%
11,COc1cc(/C(C)=N/NC(=O)C(O)(c2ccccc2)c2ccccc2)ccc1O,5.6%
12,Cc1cccc(C2(c3cccc(C)c3)CC2C(=O)NCc2ccccc2)c1 (centres undefined),-15.9%
13,Cc1ccc(-n2c(=O)c3c4c(sc3n3c(=S)[nH]nc23)CC(C(C)(C)C)CC4)cc1 (centres undefined),1.1%
14,CCOc1cc(/C=C2/C(=N)N3N=C(CC)SC3=NC2=O)ccc1OCc1ccc(F)cc1,0.1%
15,Cc1ccc(NC(=O)c2cccc(N3C(=O)C4C5c6ccccc6C(c6ccccc65)C4C3=O)c2)cc1Cl (centres undefined),8.6%
16,CN(C)CCCNC(=O)COc1ccc(Cl)cc1,6.3%
17,COc1cc(C(=O)Nc2ccc(Br)cc2C(=O)c2cc(OC)c(OC)c(OC)c2)cc(OC)c1OC,22.3%
18,CC1CCCN(C(=O)c2ccccc2)C1 (centres undefined),7.8%
19,COc1ccc(CCNS(=O)(=O)c2ccc(OC)cc2)cc1,8.4%
20,COc1ccc(Cl)cc1NC(=O)CC(C)C,7.1%
21,CC(=O)N1CC2(C(C)C)CN(C(C)=O)CC(C(C)C)(C1)C2=O,4.1%
22,COc1ccc(-n2c(O)c(C=Nc3cc(OC)c(OC)c(OC)c3)c(=O)[nH]c2=O)cc1,25.6%
23,CCOc1ccccc1NC(=O)c1c(OC)cccc1OC,-7.3%
24,O=C1CS/C(=N\N=C\c2ccc([N+](=O)[O-])cc2)N1c1ccc(O)cc1,-3.5%
25,O=C(Nc1ncc(Cc2cccc(Cl)c2Cl)s1)C1CC1,13.7%
26,COc1ccc(NC(=O)c2cc(NC(=O)c3ccccc3)cc(C(=O)Nc3ccc(OC)cc3)c2)cc1,2%

row,SMILES,displacement
1,CCOc1ccc(OCC)c(S(=O)(=O)N2CCN(C)CC2)c1,18.4%
2,Cc1ncc(C[n+]2csc3ccccc32)c(N)n1,8%
3,O=C(c1ccc([N+](=O)[O-])cc1)N1CCN(CC2CC=CCC2)CC1 (centres undefined),-14.6%
4,O=C(Nc1sc2c(c1C(=O)Nc1ccc(Cl)cc1)CCC2)c1ccc([N+](=O)[O-])cc1,3.7%
5,N#Cc1c(/N=C\c2ccc(N3CCOCC3)c([N+](=O)[O-])c2)sc2c1CCCC2,81.3%
6,O=C(O)c1ccccc1C(=O)Nc1ccc2c(c1)C(=O)c1ccccc1C2=O,14.4%
7,CCOC(=O)c1c(-c2ccccc2)csc1NC(=O)c1sc2ccccc2c1Cl,3.5%
8,Cc1ccc(C(=O)N/C(=C\c2cccc([N+](=O)[O-])c2)C(=O)Nc2ccc(C)cc2C)cc1,-4.4%
9,COc1ccc2c(c1)CC(C1(O)C(=O)N(C)c3ccccc31)C2=O (centres undefined),7%
10,Cc1cc(Cl)ccc1OCC(=O)NCCc1nc2ccccc2[nH]1,15.5%
11,Cc1ccc(/C(O)=C2\C(=O)C(=O)N(c3ccc(O)cc3)C2c2cccc([N+](=O)[O-])c2)cc1 (centres undefined),5.5%
12,O=C(CCN1C(=O)S/C(=C\c2ccc(Cl)cc2)C1=O)Nc1ccccc1,-5.3%
13,Cc1[nH]n(-c2ccccc2)c(=O)c1/C=N/NC(=O)COc1ccc(C(C)(C)C)cc1,-4%
14,CCCCOc1ccc(C2Nc3ccccc3NC3=C2C(=O)CC(C)(C)C3)cc1 (centres undefined),5.9%
15,CC1CCc2c(sc(NC(=O)CCc3ccccc3)c2C(N)=O)C1 (centres undefined),11.3%
16,NS(=O)(=O)c1ccc(N/C=C/C(=O)c2ccco2)cc1,74.8%
17,Cc1cc(N2CCN(C/C=C/c3ccccc3)CC2)nc2ccccc12,-22.5%
18,Cc1cc(C)cc(NC(=O)CN(c2cccc(C(F)(F)F)c2)S(C)(=O)=O)c1,7.2%
19,Cc1ccccc1N1C(=O)/C(=C/c2cc(C)n(-c3cccnc3)c2C)C(=O)NC1=S,42.1%
20,O=C1NC(=O)N(c2ccc(Cl)cc2)C(=O)/C1=C\c1cccc(O)c1,10.5%
21,CCCCCCOc1ccc(N2C(=O)CC(NCc3ccc(OC)cc3)C2=O)cc1 (centres undefined),4.5%
22,C=CCNC(=O)CN(c1cccc(OC)c1)S(=O)(=O)c1ccccc1,2.6%
23,Cc1ccc(CN2CCN(N=Cc3ccccc3Br)CC2)c(C)c1,11.2%
24,COc1ccc(S(=O)(=O)N(CCc2ccccc2)CC(=O)Nc2cccc(Cl)c2C)cc1,-20.5%
25,CC(Nc1n[nH]c(=O)[nH]c1=O)C(=O)OCc1ccccc1 (centres undefined),-2.7%
26,CCOc1ccccc1NC(=O)CN1C(=O)/C(=C/c2cccc(Br)c2)SC1=S,78.7%
